Source: PubChem BioAssay AID624171 (National Center for Advancing Translational Sciences (NCATS), 2012)
Where “and” joins values, the source holds several entries; their conditions need not be identical. Equal entries are not always repeated. Screen size: about 410,000 compounds; about 1,200 (0.29%) were called active. Inconclusive means that the source gave no clear call. Such entries were picked first, then a sample of the others. The call rests on the fitted dose curve; in most records, active means well fitted activation curve with a large enough effect; inconclusive means small, poorly fitted or top-dose-only effect; inactive means flat fitted curve, though single readings scatter. Where the call is inconclusive, the potency comes from a doubtful curve fit.

Test: qHTS of Nrf2 Activators; further: nearly all actives have a fitted effect of over 65% in size; on activation: % of control where 0% means no effect
Conditions: AREc32 ARE-luciferase reporter (MCF7-derived line), luminescence, 24 h; activation: at 46.1 µM (top of the series)
Procedure, shortened: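 AREc32 cells carrying an ARE-driven firefly luciferase, 1000 cells/well in OPTI-MEM with 5% FBS, dosed after overnight attachment and incubated 24 hr at 37 deg C. Steady-Glo luminescence read after 30 min at RT.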
Potency means the concentration at half of the fitted maximal effect; tags describe the fitted curve by direction and shape.

**Q.** For `O=C1NC(=Nc2ccccc2Cl)S/C1=C\c1cccc([N+](=O)[O-])c1`, which Potency is on record?
**A.** inconclusive: 11.2 µM [activator, partial curve, poor fit]

**Q.** Which Potency does the source give for `CC(=O)C1C(=O)c2c(cccc2[N+](=O)[O-])C1=Nc1cccc(Cl)c1` (stereo not given) here?
**A.** inconclusive: 31.6 µM [activator, single point]

**Q.** For `O=C(CSc1ccc(-c2ccco2)nn1)NCc1ccccc1`, which Potency is on record?
**A.** inconclusive: 10 µM [activator, partial curve]

**Q.** With `Cc1cc(-c2c(C)[nH]n(-c3ccccc3)c2=O)n[nH]1` as the molecule, how does the Potency read?
**A.** inconclusive: 22.4 µM [activator, single point]

**Q.** Which “activation” value does the source give for `CCOc1ccc(NC(=O)c2ccco2)cc1` here?
**A.** inactive: 0.0603%

**Q.** Which “activation” value does the source give for `Cc1nc2ccccc2n1-c1ccccc1` here?
**A.** inactive: -0.341%

**Q.** Which Potency does the source give for `COC(=O)C1=C(C)NC(C)=C(C(=O)OC)C1c1cn(-c2ccccc2)nc1-c1ccco1` here?
**A.** inconclusive: 17.8 µM [activator, single point]

**Q.** With `CS(=O)(=O)c1ccc(C(=O)OCC(=O)N2CCOCC2)cc1[N+](=O)[O-]` as the molecule, how does the Potency read?
**A.** inconclusive: 17.8 µM [activator, partial curve, poor fit]

**Q.** For `COc1cc(C)cc(C(=O)C=Cc2ccccc2)c1O`, which Potency is on record?
**A.** inconclusive: 17.8 µM [activator, single point]

**Q.** For `O=C(/C=C/c1ccco1)Nc1ccccc1N1CCCCC1`, which Potency is on record?
**A.** inconclusive: 3.98 µM [activator, partial curve]

**Q.** With `O=C(Cn1ncc(Cl)c(Cl)c1=O)N1CCOCC1` as the molecule, how does the Potency read?
**A.** active: 11.2 µM

**Q.** With `Clc1ccsc1-c1ccnc(-n2cccc2)n1` as the molecule, how does the Potency read?
**A.** active: 10 µM

**Q.** With `COc1ccc(Nc2oc(-c3ccc(COc4cccc(C)c4)o3)nc2C#N)cc1` as the molecule, how does the “activation” value read?
**A.** inactive: 5.13%

**Q.** For `CCSc1nnc(NC(=O)c2ccc3ccccc3n2)s1`, which Potency is on record?
**A.** inconclusive: 15.8 µM [activator, single point]

**Q.** For `COC(=O)CC1=C(C(=O)OC)[C@@H](c2ccccc2[N+](=O)[O-])C(C#N)=C(N)O1`, which Potency is on record?
**A.** inconclusive: 20 µM [activator, partial curve, poor fit]

**Q.** For `CC(C)C(=O)N1CCN(c2ccccc2NC(=S)NC(=O)c2cccs2)CC1`, which “activation” value is on record?
**A.** inactive: 3.42%

**Q.** Which “activation” value does the source give for `O=C(NCc1ccccc1)N1CCn2c(nc3ccccc32)C1` here?
**A.** inactive: 0.404%

**Q.** For `Cc1ccc(C)c(N=Cc2c(O)c3ccccc3oc2=O)c1`, which Potency is on record?
**A.** inconclusive: 31.6 µM [activator, single point]

**Q.** Which Potency does the source give for `C=C(C(=O)c1ccccc1)C(C(=C)C(=O)c1ccccc1)c1ccc(OC)cc1` here?
**A.** inconclusive: 25.1 µM [activator, single point]

**Q.** For `Cc1ccc2[nH]c3c(c2c1)CCCC3NC(=O)CCl` (stereo not given), which “activation” value is on record?
**A.** inactive: 7.7%

**Q.** For `COc1ccc(OC)c(C(=O)CC2OC(=O)c3ccccc32)c1` (stereo not given), which Potency is on record?
**A.** active: 12.6 µM

**Q.** With `Cc1ccc(N2C(=O)CC(c3ccccc3F)C3=C2COC3=O)cc1Cl` (stereo not given) as the molecule, how does the “activation” value read?
**A.** inactive: 0.64%

**Q.** With `COc1ccc(OC)c(-c2cc(C(=O)Nc3ccc(C)c(C)c3)no2)c1` as the molecule, how does the Potency read?
**A.** inconclusive: 7.08 µM [activator, partial curve, poor fit]

**Q.** For `N/C(=N\OC(=O)c1cccc([N+](=O)[O-])c1)c1ccccn1`, which Potency is on record?
**A.** inconclusive: 2 µM [activator, partial curve, poor fit]

**Q.** For `COc1cc(/C=C2/NC(=O)N(c3cccc(Cl)c3)C2=O)ccc1O`, which Potency is on record?
**A.** inconclusive: 7.08 µM [activator, partial curve, poor fit]

**Q.** Which “activation” value does the source give for `Cc1[nH]c(=O)[nH]c(=O)c1/C=C/C(=O)OCC(C)C` here?
**A.** inactive: 0.635%

**Q.** Which Potency does the source give for `Cc1ccc(SCc2nc3ncccn3c2Br)cc1` here?
**A.** inconclusive: 28.2 µM [activator, single point]

**Q.** Which Potency does the source give for `Cc1ccc(C(=O)NC(=C(Cl)Cl)S(=O)(=O)c2ccc(C)cc2)cc1` here?
**A.** active: 11.2 µM

**Q.** For `Cc1ccnc(SCC(=O)c2ccc(Br)cc2)c1C#N`, which Potency is on record?
**A.** active: 2.24 µM

**Q.** Which Potency does the source give for `O=C(/C=C/c1c(F)cccc1Cl)c1ccc(F)cc1` here?
**A.** inconclusive: 20 µM [activator, single point]

**Q.** With `O=C1N=c2ccccc2=C1c1sc(Nc2cccc(O)c2)nc1O` as the molecule, how does the Potency read?
**A.** inconclusive: 20 µM [activator, single point]

**Q.** For `CC(=O)C(Cc1ccccc1)NC(=O)CCl` (stereo not given), which Potency is on record?
**A.** inconclusive: 20 µM [activator, single point]

**Q.** For `Cc1onc(-c2cccc(Cl)c2Cl)c1C(=O)O/N=C(\N)c1ccc([N+](=O)[O-])o1`, which Potency is on record?
**A.** inconclusive: 28.2 µM [activator, single point]

**Q.** For `Cc1cccc(Cn2c(=O)n(Cc3ccco3)c(=O)c3ccccc32)c1`, which Potency is on record?
**A.** inconclusive: 22.4 µM [activator, single point]

**Q.** Which Potency does the source give for `Cc1ccc(OCC(=O)c2cc(C)n(-c3cc(C)on3)c2C)c([N+](=O)[O-])n1` here?
**A.** inconclusive: 31.6 µM [activator, single point]

**Q.** For `CC(=O)c1cccc(NC(=O)C(Sc2ncnc3ccccc23)c2ccccc2)c1` (stereo not given), which Potency is on record?
**A.** inconclusive: 28.2 µM [activator, single point]

**Q.** With `Nc1nc(NCc2ccco2)nc(N2CCCC2)c1[N+](=O)[O-]` as the molecule, how does the Potency read?
**A.** inconclusive: 5.62 µM [activator, partial curve]

**Q.** Which Potency does the source give for `CCC(O)(CC)C(=O)NN(C(=O)CCl)c1ccccc1` here?
**A.** inconclusive: 14.1 µM [activator, single point]

**Q.** Which “activation” value does the source give for `CCOC(=O)c1cccc(NC(=O)NCCc2c(C)nn(C)c2C)c1` here?
**A.** inactive: -0.227%

**Q.** With `COc1ccc(S(=O)(=O)Nc2ccc3c(c2)n(C)c(=O)n3C)cc1C` as the molecule, how does the “activation” value read?
**A.** inactive: 13.6%

**Q.** With `O=C(c1cccs1)c1coc2ccc(O)c(CN(CCO)CCO)c12` as the molecule, how does the Potency read?
**A.** inconclusive: 15.8 µM [activator, single point]

**Q.** For `O=C(/C=C/c1ccco1)Nc1ccc(S(=O)(=O)N2CCOCC2)cc1`, which Potency is on record?
**A.** active: 11.2 µM

**Q.** Which Potency does the source give for `COc1cccc(/C=C/C(=O)OCC(=O)NCc2ccco2)c1OC` here?
**A.** inconclusive: 15.8 µM [activator, partial curve, poor fit]

**Q.** With `C=CC[n+]1c(-c2ccc(C)cc2)csc1NNC(=O)Nc1ccccc1` as the molecule, how does the Potency read?
**A.** inconclusive: 35.5 µM [activator, partial curve, poor fit]

**Q.** Which Potency does the source give for `CC(C)(O)c1cc2ccc(C#Cc3ccsc3)cc2c(=O)o1` here?
**A.** active: 5.01 µM

**Q.** For `O=C(c1ccc(F)cc1)C(CN1CCOCC1)c1ccccc1` (stereo not given), which Potency is on record?
**A.** inconclusive: 3.98 µM [activator, single point]

**Q.** With `C=CC(=O)OCCOCCOCCOCCOC(=O)C=C` as the molecule, how does the Potency read?
**A.** inconclusive: 3.16 µM [activator, single point]

**Q.** For `CCCCCCNCc1cccc(Br)c1`, which “activation” value is on record?
**A.** inactive: 0.181%

**Q.** Which Potency does the source give for `Cc1ccc(C)n1-c1nnc(N2CCC(C(=O)NCc3ccc(F)cc3)CC2)s1` here?
**A.** inconclusive: 22.4 µM [activator, partial curve, poor fit]

**Q.** With `Brc1ccc(C2=CC(c3ccco3)n3ncnc3N2)cc1` (stereo not given) as the molecule, how does the Potency read?
**A.** inconclusive: 10 µM [activator, partial curve, poor fit]

**Q.** For `C/C(=N\Nc1ccccn1)c1ccc(Br)s1`, which Potency is on record?
**A.** inconclusive: 10 µM [activator, partial curve, poor fit]

**Q.** For `COc1cc2cc(-c3ccc(O)cc3O)nc(C)c2cc1OC`, which “activation” value is on record?
**A.** inactive: 19.3%

**Q.** For `O=C(CCc1ccccc1)NC(=S)NCc1ccco1`, which Potency is on record?
**A.** inconclusive: 14.1 µM [activator, single point]

**Q.** For `O=C(/C=C(O)/C=C/c1ccc(O)cc1)/C=C/c1ccc(O)cc1`, which Potency is on record?
**A.** inconclusive: 31.6 µM [activator, single point]

**Q.** For `Cc1nnsc1S(=O)c1ccc(Cl)cc1` (stereo not given), which Potency is on record?
**A.** inconclusive: 15.8 µM [activator, partial curve, poor fit]

**Q.** For `O=C(Nc1nc(-c2ccco2)c(-c2ccco2)s1)c1ccc(F)cc1F`, which Potency is on record?
**A.** inconclusive: 12.6 µM [activator, partial curve, poor fit]

**Q.** With `O=C(COc1ccccc1[N+](=O)[O-])NNC(=O)Nc1cccc2ccccc12` as the molecule, how does the Potency read?
**A.** active: 14.1 µM

**Q.** Which “activation” value does the source give for `CC(C)CCNc1ncnc2c1nnn2Cc1ccccc1Cl` here?
**A.** inactive: 3.69%

**Q.** For `Cc1ccc(S(=O)(=O)CCC(=O)N(CCCN2CCOCC2)c2nc3ccccc3s2)cc1`, which Potency is on record?
**A.** active: 12.6 µM

**Q.** For `N#CC1C(=O)NC(c2ccccc2)=CC1c1ccccc1` (stereo not given), which Potency is on record?
**A.** inconclusive: 3.98 µM [activator, full curve]

**Q.** Which “activation” value does the source give for `Cc1cc(NC(=O)CS(=O)(=O)c2cn(Cc3ccccc3Cl)c3ccccc23)no1` here?
**A.** inactive: -0.52%

**Q.** Which “activation” value does the source give for `Cc1ccc(C(=O)NCCc2ccc(F)cc2)s1` here?
**A.** inactive: -0.84%

**Q.** With `Cc1cc(Oc2nc3ccccn3c(=O)c2/C=C(\C#N)C(=O)NC2CCS(=O)(=O)C2)ccc1Cl` (stereo not given) as the molecule, how does the Potency read?
**A.** inconclusive: 17.8 µM [activator, single point]

**Q.** For `Cc1ccc(-c2nnc(SCC(=O)N/N=C/c3ccccc3C(=O)O)n2-c2ccc(C)cc2)cc1`, which “activation” value is on record?
**A.** inactive: -0.243%

**Q.** Which Potency does the source give for `CCOC(=O)/C=C/C(=O)Nc1ccc(S(=O)(=O)N(C)c2ccccc2)cc1` here?
**A.** inconclusive: 31.6 µM [activator, single point]

**Q.** For `O=C(Nc1nccs1)c1cc([N+](=O)[O-])ccc1Cl`, which Potency is on record?
**A.** inconclusive: 12.6 µM [activator, single point]

**Q.** Which Potency does the source give for `Cc1ccc2[nH]c(O)c(N=NC(=O)c3ccc(NS(=O)(=O)c4cccs4)cc3)c2c1` here?
**A.** inconclusive: 11.2 µM [activator, partial curve]

**Q.** Which Potency does the source give for `CCN(CC)CCNC(=O)C1CCN(S(=O)(=O)c2c(C)noc2/C=C/c2ccccc2F)CC1` here?
**A.** inconclusive: 11.2 µM [activator, single point] and inconclusive: 20 µM [activator, partial curve, poor fit]

**Q.** For `O=C(COC(=O)c1nc(Cl)ccc1Cl)Nc1ccc(Cl)cn1`, which Potency is on record?
**A.** inconclusive: 12.6 µM [activator, partial curve, poor fit]

**Q.** With `Cc1ccc(S(=O)(=O)c2nc(S(C)(=O)=O)sc2N2CCN(C)CC2)cc1` as the molecule, how does the Potency read?
**A.** inconclusive: 3.16 µM [activator, full curve]
